According to patent US7968752B2, “Hydrolytically-resistant boron-containing therapeutics and methods of use” (Anacor Pharmaceuticals, Inc., priority 2003, dated 2011):
pIC50: −log10 of the molar value.

Test system: HCV RNA replicon ET (luc-ubi-neo/ET)
Assay: microbe, parasite or virus in culture
Details: for pIC50: Hepatitis C virus, 72 h, read-out: Anti-Hepatitis Activity (Replicon Assay) IC50
Text: The cell line ET (luc-ubi-neo/ET), a new HCV RNA replicon that contains a stable luciferase (LUC) reporter, was used. The composition of the replicon is shown diagrammatically above (ref, Krieger, N., V. Lohmann, and R. Bartenschlager. 2001. Enhancement of hepatitis C virus RNA replicon replication by cell culture-adaptive mutations. J. Virol. 75:4614-4624). The HCV RNA replicon ET contains the 5′ NTR (IRES) of HCV (5′) which drives the production of a firefly luciferase (Luc), ubiquitin (Ubiq), and neomycin phosphotransferase (Neo) fusion protein. Ubiquitin cleavage releases the LUC and Neo genes. The EMCV IRES element (E-I) controls the translation of the HCV structural proteins NS3-NS5.
The NS3 protein cleaves the HCV polyprotein to release the mature NS3, NS4A, NS4B, NS5A and NS5B proteins that are required for HCV replication. At the 3′ end of the replicon is the authentic 3′ NTR of HCV. The LUC reporter is used as an indirect measure of HCV replication. The activity of the LUC reporter is directly proportional to HCV RNA levels and positive control antiviral compounds behave comparably using either LUC or RNA endpoints. The use of the LUC endpoint is more economical than HCV RNA and can be used for high-throughput applications to screen libraries of compounds.

Compound	Anti-Hepatitis Activity (Replicon Assay) Selectivity Index	pIC50
N#Cc1cccc(B2OCc3cc(F)ccc32)c1 [Compound 20, 3-(5-Fluorobenzo[c][1,2]oxaborol-1(3H)-yl)benzonitrile]	3.2	4.71
Clc1cccc(B2OCc3ccccc32)c1 [Compound 12, 1-(3-Chlorophenyl)-1,3-dihydrobenzo[c][1,2]oxaborole]	2.4	4.51
N#Cc1ccc(B2OCc3cc(F)ccc32)cc1 [Compound 19, 4(5-Fluorobenzo[c][1,2]oxaborol-1(3H)-yl)benzonitrile]	14	5.43
N#Cc1cccc(B2OCc3ccc(F)cc32)c1 [Compound 21, 3-(6-Fluorobenzo[c][1,2]oxaborol-1(3H)-yl)benzonitrile]	7.9	5.26
Fc1ccc2c(c1)B(c1cccc(Cl)c1)OC2 [Compound 15, 1-(3-Chlorophenyl)-6-fluoro-1,3-dihydrobenzo[c][1,2]oxaborole]	11	5.22
Fc1cccc(B2OCc3cc(Cl)ccc32)c1 [Compound 13, 5-Chloro-1-(3-Fluorophenyl)-1,3-dihydrobenzo[c][1,2]oxaborole]	11	5.41
N#Cc1ccc(B2OCc3ccccc32)cc1 [Compound 18, 4-(Benzo[c][1,2]oxaborol-1(3H)-yl)benzonitrile]		5.71
Clc1ccc(B2OCc3ccccc32)cc1 [Compound 17, 1-(4-Chlorophenyl)-1,3-dihydrobenzo[c][1,2]oxaborole]	33	5.07
N#Cc1cccc(B2OCc3ccccc32)c1 [Compound 14, 3-(Benzo[c][1,2]oxaborol-1(3H)-yl)benzonitrile]	2.5	5.54
Fc1ccc2c(c1)COB2c1cccc(Cl)c1 [Compound 11, 1-(3-Chlorophenyl)-5-fluoro-1,3-dihydrobenzo[c][1,2]oxaborole]	1.5	4.89
